Measured values from PubChem BioAssay (Tox21).
“And” between values parts separate entries of the source, which are not always exact repeats. Equal entries are not always repeated. The inconclusive results got no clear call from the source. Where the call is inconclusive, the potency comes from a doubtful curve fit.

What follows are compounds tested against Cytochrome P450 3A4 (Homo sapiens) (UniProt P08684) (assay: Cytochrome P450 Family 3 Subfamily A Member 4 (CYP3A4) small molecule antagonists: luciferase reporter qHTS assay (AID 1671201; also: nearly all actives have a fitted effect of over 50% in size)). Conditions: P450-Glo CYP3A4 enzyme, luciferin luminescence, 1 h; series mostly up to 115 µM; active = well fitted inhibition curve with a large enough effect in the repeat runs; inconclusive = weak or mixed curves; inactive = no such curve, though single readings can be large or run the other way.
UniProt P08684, sequence (P08684 whole entry, looked up): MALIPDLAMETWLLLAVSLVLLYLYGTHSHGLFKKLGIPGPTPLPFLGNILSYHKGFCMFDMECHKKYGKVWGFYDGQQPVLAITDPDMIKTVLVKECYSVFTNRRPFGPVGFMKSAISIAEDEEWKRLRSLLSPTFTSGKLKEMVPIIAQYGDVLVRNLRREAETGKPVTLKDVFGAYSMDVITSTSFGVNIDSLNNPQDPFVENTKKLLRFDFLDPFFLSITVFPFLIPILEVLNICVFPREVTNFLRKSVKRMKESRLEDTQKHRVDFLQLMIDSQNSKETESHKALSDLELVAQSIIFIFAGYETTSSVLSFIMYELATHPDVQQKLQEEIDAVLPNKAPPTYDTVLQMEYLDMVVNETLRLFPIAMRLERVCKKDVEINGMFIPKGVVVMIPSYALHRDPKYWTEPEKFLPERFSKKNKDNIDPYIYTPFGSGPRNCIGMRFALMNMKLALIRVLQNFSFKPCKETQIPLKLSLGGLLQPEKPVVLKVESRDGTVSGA
Outline: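 Compounds in DMSO were pin-transferred onto CYP3A4 enzyme-substrate mix and held 10 min at room temperature. NADPH regenerating solution started the reaction for 1 h; luciferin detection reagent stopped it, and luminescence was read after 20 min.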
Potency is read from the fitted curve at half-maximal effect; tags tell the direction and shape of the fitted curve.

| SMILES | Potency |
| --- | --- |
| c1ccc2sc(SSc3nc4ccccc4s3)nc2c1 | inconclusive: 19 µM [inhibitor] |
| Oc1cccc2ccccc12 | inconclusive: 36.5 µM [inhibitor, partial curve] and inconclusive: 35.6 µM [inhibitor, partial curve] |
| CCCCCC1Nc2cc(C(F)(F)F)c(S(N)(=O)=O)cc2S(=O)(=O)N1 (stereo not drawn) | inconclusive: 30.9 µM [inhibitor, partial curve, poor fit] |
